One molecule from patent US20020106724A1 (RIKEN, published 2002) can be followed below.

The assay addresses T1, SYNCRIP (Synaptotagmin-binding, cytoplasmic RNA-interacting protein), full-length (mouse, UniProt Q7TMK9 1-549).
T1 construct: Tested as crude lysates, not purified; also called 66 kDa protein; wild type
T1 sequence: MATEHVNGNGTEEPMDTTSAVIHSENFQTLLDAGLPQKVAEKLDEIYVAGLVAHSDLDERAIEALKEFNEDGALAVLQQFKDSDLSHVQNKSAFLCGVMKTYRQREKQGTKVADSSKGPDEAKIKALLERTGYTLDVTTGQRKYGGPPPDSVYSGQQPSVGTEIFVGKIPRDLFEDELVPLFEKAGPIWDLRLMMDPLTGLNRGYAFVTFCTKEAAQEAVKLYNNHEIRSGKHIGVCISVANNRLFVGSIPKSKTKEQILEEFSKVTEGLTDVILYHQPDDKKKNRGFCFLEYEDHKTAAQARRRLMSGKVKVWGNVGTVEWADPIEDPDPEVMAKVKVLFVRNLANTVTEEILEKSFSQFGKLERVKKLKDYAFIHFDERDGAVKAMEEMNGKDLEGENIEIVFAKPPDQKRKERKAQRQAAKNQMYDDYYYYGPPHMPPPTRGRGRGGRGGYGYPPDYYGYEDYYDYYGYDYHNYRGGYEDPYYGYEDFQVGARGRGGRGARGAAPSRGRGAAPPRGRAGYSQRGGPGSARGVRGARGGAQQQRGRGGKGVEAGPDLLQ
In words: GST pull-down from mouse whole brain detergent extract, Western blot with anti-SYNCRIP-N antibody. In general terms: In western blotting, separated proteins are transferred to a membrane and probed.

B1: GST alone (other)
chain: not shown
notes: Control protein in the pull-downs; also called purified GST; glutathione-S-transferase
Take B1: the binding result was “no binding (tested: 25 µg of purified GST alone)”.
